Measurements reported in article PMC12136788.
This is one part of the list.

B1: ENSG00000136451:be:win_3451|3pUTR|ENSG00000136451|bound_else_gene|NA|bound_elsewhere_windowed (ssRNA)
RNA: GGGAGUUCUACAGUCCGACGAUCCAAAAUGUAGAGAAAAAUAUGUAGCUAUGACUUUGUUACAACUGUUCUUAUCCACAGUACAAAAAUGGUUUGUUUUUAAUAUGUAGAGCAUUAUGUGUGGACUACUGGAAGGACUCGUGUCAACAGAGGAUUGAGCAUCA
B2: chr15:49876277:49876523:-|three_prime_utr|ENSG00000104043|control|control|control (ssRNA)
RNA: GGGAGUUCUACAGUCCGACGAUCUCUGCUUUUUAACAAGCGUAAAUUUUUCAUUUGCGUGUUGCAUGGAAUCUACACCUCAUUAGUCCUUUUCUUCAUCCCCUAUGGGGCCUUUUACAACGUGGCUGGAGAAGAUGGGCAACACAACAGAGGAUUGAGCAUCA
B3: ENSG00000107863:be:win_2551|CDS|ENSG00000107863|bound_else_gene|NA|bound_elsewhere_windowed (ssRNA)
RNA: GGGAGUUCUACAGUCCGACGAUCUUAAUUCGCCGUCAGCUCUCACAUGACCACGAAUCUGUUGGCCCUCCUAGCCUGGAUGCUCAGCCCAACUCAAAGACAGAAAGAUCAAAAUCAUAUGAUGAGGGUCUGGAUGAUUACAGACAACAGAGGAUUGAGCAUCA
B4: chr2:27781378:27781788:-|three_prime_utr|ENSG00000171174|control|control|control (ssRNA)
RNA: GGGAGUUCUACAGUCCGACGAUCAACACAGUCAUCUUACCCUUACAAAAAAGACCUUCCGCUUACUCUGUUUUGAUUGCUAUUAGUCCCAAAAUAAAUAUACCUGGGAAUAAAAUGUACUUGGGGGUGGCUGCUCCUGGCUAACAACAGAGGAUUGAGCAUCA
B5: chr5:78475949:78476050:+|3pUTR|ENSG00000085365|msi1|FALSE|unique (ssRNA)
RNA: GGGAGUUCUACAGUCCGACGAUCACCCACUGAAAAUUAAUAAUGGUACUUAUGAUUAAAAACGCAUUUAAUACUAACUGCAGUAGUUCUUUCAAGAAUCUUUAGAGAUAAGGAUUGCACAUUGGAAAAGUAAACCAUGUUUCACAACAGAGGAUUGAGCAUCA
B6: chr12:133204733:133204837:+|3pUTR|ENSG00000090612|unk|total|mutant (ssRNA)
RNA: GGGAGUUCUACAGUCCGACGAUCCAAAAAGACCGCCGACAAUACACAGGAAAACUGAAUUCCGUAACCACUCUGAAAAUUUUCCGCAGCAAGUCAUACCUUUUUUUAAAAAGUUCAUACAGGUGAGGAACCAUGUUAAACGUUCAACAGAGGAUUGAGCAUCA
B7: chr11:134151495:134151596:+|3pUTR|ENSG00000166086|unk|FALSE|unique (ssRNA)
RNA: GGGAGUUCUACAGUCCGACGAUCUAGUGCCAUGGGAACCAGGUCUGAAAAAGUAGAGAGAAGUGAAAGUAGAGUCUGGGAAGUAGCUGCCUAUAACUGAGACUAGACGGAAAAGGAAUACUCGUGUAUUUUAAGAUAUGAAUGCAACAGAGGAUUGAGCAUCA
B8: ENSG00000107863:be:win_6251|3pUTR|ENSG00000107863|bound_else_gene|NA|bound_elsewhere_windowed (ssRNA)
RNA: GGGAGUUCUACAGUCCGACGAUCUAUUGUUAAAAUUAGAUAACUUACUUACAUUGAAUAAACGAAUGCGUUUUAUUGGUAACAGAUAUCAUUACAUUUACCAGUUUUAACACAGGUGGAUACAGAACUUCCAUUCUUUAGUCACAACAGAGGAUUGAGCAUCA
B9: chr1:180885099:180885158:+|3pUTR|ENSG00000143324|msi1_unk|total|mutant (ssRNA)
RNA: GGGAGUUCUACAGUCCGACGAUCAGCUGAAGCUAUGCCUUAUUAUGCAUCCACAUGUAUGGUCCCUGCCGCGUGACCUUUACCCGCUCUGAAUCAGAAGACAGAGCUAUUUCAGAGGCUCUGUGUGCCCUCACCCGACCGUUUCAACAGAGGAUUGAGCAUCA
B10: chr5:24509697:24509799:-|CDS|ENSG00000040731|unk|total|mutant (ssRNA)
RNA: GGGAGUUCUACAGUCCGACGAUCACUCGACUAUGAGAGCCGAAGACUUUAUACUCUGAAAGUCGAAGCAGAAAACACCCAUGCCGAUCCCCGUUUUUAUUACCCCGGACCAUUUAAAGAUACUACCACCGUGAAAAUCUCUAUCAACAGAGGAUUGAGCAUCA
B11: chr14:70725571:70725672:-|3pUTR|ENSG00000006432|unk|total|mutant (ssRNA)
RNA: GGGAGUUCUACAGUCCGACGAUCUAUUGUCCGAAACGCAUUACCAAAUGCAUCUCUUCUGUCGGAUCAGCGUAUUCCCCGAUCCGGAAUUCAAAUUAAUGAAAAUUCACAUAUGAAAGGAAAAUCCAUUGCUAUUUCUGGAGACAACAGAGGAUUGAGCAUCA
B12: chr1:150144965:150145066:+|3pUTR|ENSG00000136631|msi1|total|mutant (ssRNA)
RNA: GGGAGUUCUACAGUCCGACGAUCAGACUCCCAGAGUUGUCCUAACAAUAAGUCUGAGCCCAUCUCAACCCACUUUUCUCCGGCCGUCUUUAUGUAUCUGUCCGCACAAUCACUUCAGUUACUGAUGAAUUUUGUUGGGAUCUGCAACAGAGGAUUGAGCAUCA
B13: chr19:45224777:45224913:-|CDS|ENSG00000283632|control|control|control (ssRNA)
RNA: GGGAGUUCUACAGUCCGACGAUCGCCGAGCGCCUGGCCCGGGUGGGGCCCCCAGAAAGCGAGCCGGCCCGGGAAGCAUCUGCUAGUGCUCUGGACCAUGUGACCCGGCUCUGCCACCGUGUCGUGGCCAACCUGCUGUUCCAGCAACAGAGGAUUGAGCAUCA
B14: chrX:155122998:155123099:+|3pUTR|ENSG00000185515|unk|total|mutant (ssRNA)
RNA: GGGAGUUCUACAGUCCGACGAUCCUACAUACACACAAAUGAAUGCAUGUAAAAUCUGGUGAUACUGAAUAAAGUCUGUGGUCCCGACCGCAGUAUAAUAUUAUUGUCAAUGUCUUGGAUGUGAAGUUGUGCUACCGUUACAAACAACAGAGGAUUGAGCAUCA
B15: chr12:56416428:56416529:-|3pUTR|ENSG00000111602|msi1|FALSE|unique (ssRNA)
RNA: GGGAGUUCUACAGUCCGACGAUCAUGUUCUUACCCAUUCUUGGAAACGUCAGCUUUCUUGCUUCCUGUGCUUCCAGCCGAGGUAGGGCAAAGGUGAGAUUGAGAAAAUAGCCAUUCAGCUCAGGAAGGCUUCUAAGUAAAGGACAACAGAGGAUUGAGCAUCA
B16: chr9:72354534:72354635:-|3pUTR|ENSG00000107372|msi1|FALSE|unique (ssRNA)
RNA: GGGAGUUCUACAGUCCGACGAUCGUCCUAGUUUUUACUUUUAUUCUUAAAGCAUUCAGUUUUGCUUUCAAUUUUAUGUACCUUAGUUCUGAGUUAGACCUGCAGAUGUGUACAGAUAGUUCAUAUUUAUGUAUUGCACAUAAUCAACAGAGGAUUGAGCAUCA
B17: ENSG00000124766:be:win_2351|3pUTR|ENSG00000124766|bound_else_gene|NA|bound_elsewhere_windowed (ssRNA)
RNA: GGGAGUUCUACAGUCCGACGAUCCAGACCCCGGAGGCGUGGAGGAGAGGAGACUGUUUGAUGUGGUACAGGGGCAGUCAGUGGAGGGCGAGUGGUUUCGGAAAAAAAAAAAGAAAAAAAGAAAAAAAAAGAAAAAAAAAAGAUCAACAGAGGAUUGAGCAUCA
B18: chr21:44851366:44851434:-|CDS_3pUTR|ENSG00000183255|msi1_unk|total|mutant (ssRNA)
RNA: GGGAGUUCUACAGUCCGACGAUCAGGACAGUCCUCUCGUCUUGCAGACUGGUGACCUUCUAUUCCCUGUUCAUCUCUGUUUCCCGAUUCCGUCACUUGAAAUAAGAAAUCUUUGGGGUUUGGGCUUUUUUAUACUCUUCUCAGCAACAGAGGAUUGAGCAUCA
B19: chr13:52475664:52475769:+|3pUTR|ENSG00000136108|msi1|FALSE|bound_elsewhere (ssRNA)
RNA: GGGAGUUCUACAGUCCGACGAUCGCGUCCCUUGGACUGCCUGUUGAUUGAUGGAAAGUGUCUGCACUGACACUUUUCGUCAGUAGUCUGUAGUUUCGUGGCCUCUUUUGAUUAUAACUGGGGUCACCAAGAAGGUUUACUUAACAACAGAGGAUUGAGCAUCA
B20: chr5:179730620:179730726:+|3pUTR|ENSG00000127022|msi1_unk|total|mutant (ssRNA)
RNA: GGGAGUUCUACAGUCCGACGAUCGAGCUUUAAAUCAUCCGAGCUUAAAUUGUCAGAUCGUUCAUUGCCUUUCCAGGGUUAUUCCGUAAAGUUUGUUGAAAACAAAAACGCCUUUUCUUGGUUCUUUUUUCAGUUAUUUUGAAGCAACAGAGGAUUGAGCAUCA
B21: chr1:51356092:51356193:-|3pUTR|ENSG00000085832|unk|FALSE|unique (ssRNA)
RNA: GGGAGUUCUACAGUCCGACGAUCUUCAGAGAUAAGGAAAAAUAUUUUGCACAGAUUUACUCCACUAUGGAAAAGGGAUGCUGUAGGUUGAACCAUUAUAGCCUCAGAUUCGAUCUUUUCCUAACUAAAAAUAUUAAAGCCUCACAACAGAGGAUUGAGCAUCA
B22: ENSG00000107863:be:win_1401|CDS|ENSG00000107863|bound_else_gene|NA|bound_elsewhere_windowed (ssRNA)
RNA: GGGAGUUCUACAGUCCGACGAUCGCUAAUGAAGUAUUGUCCAAGAAGUGCAUCUCAAGGAGCACUGACGUCUCCAUCUGUUAGUUUUAGUAAUCAUAGAACUCGUUCAUGGGAUUAUAUUGAGGGACAGGAUGAAACCUUAGACAACAGAGGAUUGAGCAUCA

What follows are binders tested against MSI1 full-length (mouse, UniProt Q61474 1-362) (assay: nsRBNS (natural sequence RNA bind-n-seq); RBNS binding buffer (assumed for nsRBNS): 25 mM Tris pH 7.5, 150 mM KCl, 3 mM MgCl2, 0.01% Triton X-100, 500 ug/ml BSA, 20 U/ml SUPERase-In, 4 C; UNK is unkempt and MSI1 is Musashi-1; names of the RNAs are library labels; protein concentration not given here; high values mean tight binding).
Chain of UniProt Q61474 (Q61474 whole entry): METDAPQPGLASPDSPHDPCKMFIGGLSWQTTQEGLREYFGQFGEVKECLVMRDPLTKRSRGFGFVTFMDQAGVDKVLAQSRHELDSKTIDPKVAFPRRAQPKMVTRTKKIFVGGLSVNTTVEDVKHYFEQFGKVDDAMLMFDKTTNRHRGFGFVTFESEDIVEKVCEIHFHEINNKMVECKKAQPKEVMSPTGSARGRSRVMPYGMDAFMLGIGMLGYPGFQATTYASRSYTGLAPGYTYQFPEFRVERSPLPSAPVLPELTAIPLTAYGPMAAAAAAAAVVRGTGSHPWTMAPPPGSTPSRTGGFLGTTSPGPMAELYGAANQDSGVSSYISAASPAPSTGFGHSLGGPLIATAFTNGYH

Binder | binding signal [enrichment R]
B1 | 1.21
B2 | 0.455
B3 | 0.342
B4 | 1.19
B5 | 1.73
B6 | 0.224
B7 | 2.72
B8 | 1.83
B9 | 0.335
B10 | 0.458
B11 | 0.227
B12 | 0.571
B13 | 0.572
B14 | 0.194
B15 | 0.454
B16 | 42.6
B17 | 0.761
B18 | 0.45
B19 | 0.74
B20 | 0.274
B21 | 0.404
B22 | 3.62
